Source: the supplement of paper PMC3334620
Whole data set: some 33,000 sequences, median “E-score (-0.5 to 0.5)” near -0.035, cut for the highest 2% near 0.35. The list shows a part of the results.

The sequences below were run against T1, Pdr3 (UniProt P33200) (assay: PBM E-score (8-mer binding enrichment) (E-score (-0.5 to 0.5)); higher = stronger / more preferred TF binding; most listed sequences are background and not binding sites). Conditions: protein concentration: 200 nM; construct: GST-full length.
T1 sequence: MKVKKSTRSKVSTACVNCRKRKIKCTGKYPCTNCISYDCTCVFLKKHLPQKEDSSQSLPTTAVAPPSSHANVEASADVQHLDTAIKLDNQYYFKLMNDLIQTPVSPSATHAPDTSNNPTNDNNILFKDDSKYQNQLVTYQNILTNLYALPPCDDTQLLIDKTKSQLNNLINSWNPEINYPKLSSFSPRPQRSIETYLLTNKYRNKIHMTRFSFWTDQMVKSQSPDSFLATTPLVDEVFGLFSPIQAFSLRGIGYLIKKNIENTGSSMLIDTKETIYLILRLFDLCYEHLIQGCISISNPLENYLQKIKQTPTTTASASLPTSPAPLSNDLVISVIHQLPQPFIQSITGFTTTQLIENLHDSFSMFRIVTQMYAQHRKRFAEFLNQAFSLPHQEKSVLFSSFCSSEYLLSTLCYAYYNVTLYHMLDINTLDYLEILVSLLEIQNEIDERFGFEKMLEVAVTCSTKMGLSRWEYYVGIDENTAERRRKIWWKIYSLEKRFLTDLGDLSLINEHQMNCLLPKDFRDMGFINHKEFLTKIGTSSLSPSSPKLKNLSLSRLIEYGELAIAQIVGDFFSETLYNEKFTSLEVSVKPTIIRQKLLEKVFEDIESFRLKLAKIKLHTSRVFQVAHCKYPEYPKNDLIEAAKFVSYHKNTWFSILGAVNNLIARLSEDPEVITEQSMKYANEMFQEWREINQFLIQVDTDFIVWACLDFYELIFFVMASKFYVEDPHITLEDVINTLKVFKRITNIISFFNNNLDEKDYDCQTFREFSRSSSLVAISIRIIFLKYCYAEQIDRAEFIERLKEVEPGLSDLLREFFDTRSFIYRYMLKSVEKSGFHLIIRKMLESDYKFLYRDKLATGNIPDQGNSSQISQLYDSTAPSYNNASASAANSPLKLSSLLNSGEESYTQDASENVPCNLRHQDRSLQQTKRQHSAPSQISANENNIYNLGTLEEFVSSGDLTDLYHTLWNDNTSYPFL
Protocol: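 Universal 'all 10-mer' protein binding microarrays (Agilent AMADID 015681) probed with GST-tagged S. cerevisiae TFs (full-length or DBD) made by in vitro transcription/translation (PURExpress), about 100-200 nM. Bound TF was detected with fluorescent anti-GST. Each ungapped 8-mer (which stands for itself and its reverse complement) is scored by the PBM enrichment score (E-score), a modified Wilcoxon-Mann-Whitney statistic from -0.5 to +0.5, computed with the Universal PBM Analysis Suite. Scale: above 0.35 generally sequence-specific binding.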

Sequence | PBM E-score
ACTGCATA | -0.0203
CCGCCCAG | 0.228
GACTGCTA | -0.275
CTGGGCTC | -0.231
ACTTAACT | -0.0121
CAATGGAC | -0.0624
CTCGGGCC | 0.208
CCCAGACC | -0.147
CGAGTCCA | -0.139
GAGCGAAA | 0.146
ATGTATCA | -0.0778
GAGTAATC | 0.0896
AAAATGTT | -0.218
GTAAATCA | 0.144
GCTGGACC | 0.00517
AGAATCAG | 0.0524
AGTGCTCC | 0.0777
AACCGATT | 0.123
CGAACCAC | 0.18
AAGTACGA | 0.206
GGGACGGA | 0.33
CAGGCATA | -0.143

Sequence | PBM E-score
GATAGCAC | -0.0942
CGGAACAG | 0.466
GAAGCCGC | 0.305
TCCCACCA | -0.155
GACTGCTC | 0.0261
ACTCGTTA | -0.215
AGACAACA | -0.14
TCTCTCAA | 0.116
ACAAATAT | 0.139
GGAGCGTA | 0.109
AAACTAAC | -0.00559
ATTAGTCC | 0.13
AAGACACC | 0.0231
GGCGGTAC | 0.0449
GATGCGCA | 0.0246
ATGTGTGG | -0.0324
TCAGCGCA | 0.0623
ACATATTA | -0.0563
CTGGTAAG | -0.237
AGGTTTGA | -0.142
AAGAGGAA | -0.1
ATGCAATA | -0.132

Sequence | PBM E-score
GCAACAAC | -0.0658
CGAAATAA | 0.18
TCACTTCA | -0.0887
AAAGCTTA | -0.224
ACAACCAA | -0.0379
GAGCATAC | -0.0232
CGAATTCC | 0.277
AGTCCCAC | -0.0928
GATTCCCA | 0.0551
AAGCGTTC | -0.0435
AGCATCCT | 0.156
AGACATCT | -0.135
GGTGTAGA | -0.0133
AGCACCGG | 0.196
AATAAAAT | -0.0737
ATCTCCAC | -0.0688
GCCTGGCA | -0.208
CACGGACG | 0.324
CGCTTGCC | 0.0536
TTAGAGAA | -0.297
AGTAAACC | -0.173
CGACGTCA | 0.0524

Sequence | PBM E-score
CAATTAAA | -0.0116
AATTTCCT | 0.0149
AGACTATA | 0.0891
CAGGATCC | 0.0521
AATAGTCC | -0.011
GAACCCCC | -0.167
GGGAGGAC | 0.128
CGGACACA | 0.286
ACCGAAGT | 0.0472
ATGCCTCC | -0.00197
CCCTCAGA | -0.237
AGTGAGCC | -0.0676
GATCAAAC | -0.0699
AGTTGACG | -0.0734
GAAGCCTA | 0.0119
TCAGCCCA | 0.0316
CATCACTC | -0.0507
GCTTGGCC | -0.00234
CTAGAATC | -0.15
CTGTCACC | -0.103
